Assay results: US20200123252A1 (LAMKAP BIO BETA, published 2020)

Tests used:
[1] = target: T1, human CD47 on MKN45 cells (human, UniProt Q08722); assay: inhibition of SIRPα-mouseFc binding to CD47 on MKN45 cells, imaging (CX5)
T1 construct: whole, on cells; also called IAP
Source text: The detection of bound SIRPα cell-based assay monitoring the interaction of soluble SIRPα with human CD47 expressed at the surface of MKN45 is used for the detection of the blocking activity. Dose-response experiments with bispecific antibodies according to the invention allow determination of an IC50 value.
MKN45 cancer cells, expressing both CD47 and CEACAM5, are stained with CFSE violet to allow the imaging system (CX5) to detect the cells. Briefly, 3,000 stained MKN45 cells per well are seeded in a 384 optical well plate (Costar) and incubated for 50 minutes with increased concentrations of bispecific antibodies of the invention (1.9 pM to 333 nM, in quadruplicates). Then, a fixe concentration of SIRPα-mouseFc premixed with anti-mouse IgG-Fc AF647 coupled antibody (Jackson Immunoresearch diluted 1:2000) is added at 50 ng/mL final. After an incubation of 3H30 plates are acquired with the imaging system (CX5, Thermofisher) and fluorescence signals emitted by the detected bound SIRPα is recorded by the software dedicated to the imaging system. Fluorescence signals are plotted according to the dose range tested and IC50 are calculated by the software (Prism, Graphpad).

[2] = target: T2, human CEACAM5 on MKN-45 cells (human, UniProt P06731 35-685); assay: flow cytometry on MKN45 CEA+ cells (carry CEACAM5 and CD47)
T2 construct: Endogenous CEACAM5 on MKN-45 gastric adenocarcinoma cells, which also carry CD47 (and CEACAM6); also called CD66e; MKN45 CEA+ cancer cells
T2 sequence: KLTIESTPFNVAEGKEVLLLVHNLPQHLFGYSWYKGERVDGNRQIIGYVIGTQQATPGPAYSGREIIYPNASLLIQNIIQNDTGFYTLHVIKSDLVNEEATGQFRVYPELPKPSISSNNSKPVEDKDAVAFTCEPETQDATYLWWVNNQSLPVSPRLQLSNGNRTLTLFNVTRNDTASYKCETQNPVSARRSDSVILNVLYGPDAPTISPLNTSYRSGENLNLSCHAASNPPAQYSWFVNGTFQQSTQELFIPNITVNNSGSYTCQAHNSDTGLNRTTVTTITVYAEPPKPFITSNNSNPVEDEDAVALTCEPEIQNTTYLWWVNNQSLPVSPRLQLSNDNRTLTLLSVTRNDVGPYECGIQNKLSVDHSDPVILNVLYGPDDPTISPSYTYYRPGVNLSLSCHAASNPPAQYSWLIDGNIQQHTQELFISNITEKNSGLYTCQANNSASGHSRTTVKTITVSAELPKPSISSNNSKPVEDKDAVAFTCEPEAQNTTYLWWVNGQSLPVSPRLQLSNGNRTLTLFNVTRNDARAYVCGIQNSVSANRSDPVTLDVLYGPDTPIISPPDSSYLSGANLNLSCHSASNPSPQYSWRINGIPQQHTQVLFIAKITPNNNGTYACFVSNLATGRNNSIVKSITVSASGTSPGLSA

IC50 [1]: 1.6 nM | EC50 [2]: 76.8 nM
B1: K2AC23 CEA×CD47 bispecific antibody (bispecific antibody, human IgG1, kappa, lambda)
heavy: [about 120 residues not given here][about 100 residues not given here][human IgG1 Fc not given here]
light 1: QSVLTQPPSASGTPGQRVTISCSGSSSNIGYGLVNWYQQLPGTAPKLLIYATNTRPSGVPDRFSGSKSGTSASLAISGLQSEDEADYYCAAWDFSYKVVFGGGTKLTVLGQPKAAPSVTLFPPSSEELQANKATLVCLISDFYPGAVTVAWKADSSPVKAGVETTTPSKQSNNKYAASSYLSLTPEQWKSHRSYSCQVTHEGSTVEKTVAPTECS
light 2: DIQMTQSPSSLSASVGDRVTITCRASQSISSYLNWYQQKPGKAPKLLIYAASSLQSGVPSRFSGSGSGTDFTLTISSLQPEDFATYYCQQMHPRAPKTFGQGTKVEIKRTVAAPSVFIFPPSDEQLKSGTASVVCLLNNFYPREAKVQWKVDNALQSGNSQESVTEQDSKDSTYSLSSTLTLSKADYEKHKVYACEVTHQGLSSPVTKSFNRGEC
notes: κλ body, human IgG1, common heavy chain; CEACAM5 arm light chain 1A8 (AC23)
